Measured values as given in article PMC8087825.
Results are given in words; binding and its absence hold for the method and conditions named. Binding seen in cells or lysates may run through a third protein. Some results given as binding are weak or reduced against the parent protein; the word gives no strength.

Chains of the proteins cited; added tags and fusions are not shown. Lines headed by an entry give the natural chain unless they say otherwise; changes in a name come on top.
UniProt P27986: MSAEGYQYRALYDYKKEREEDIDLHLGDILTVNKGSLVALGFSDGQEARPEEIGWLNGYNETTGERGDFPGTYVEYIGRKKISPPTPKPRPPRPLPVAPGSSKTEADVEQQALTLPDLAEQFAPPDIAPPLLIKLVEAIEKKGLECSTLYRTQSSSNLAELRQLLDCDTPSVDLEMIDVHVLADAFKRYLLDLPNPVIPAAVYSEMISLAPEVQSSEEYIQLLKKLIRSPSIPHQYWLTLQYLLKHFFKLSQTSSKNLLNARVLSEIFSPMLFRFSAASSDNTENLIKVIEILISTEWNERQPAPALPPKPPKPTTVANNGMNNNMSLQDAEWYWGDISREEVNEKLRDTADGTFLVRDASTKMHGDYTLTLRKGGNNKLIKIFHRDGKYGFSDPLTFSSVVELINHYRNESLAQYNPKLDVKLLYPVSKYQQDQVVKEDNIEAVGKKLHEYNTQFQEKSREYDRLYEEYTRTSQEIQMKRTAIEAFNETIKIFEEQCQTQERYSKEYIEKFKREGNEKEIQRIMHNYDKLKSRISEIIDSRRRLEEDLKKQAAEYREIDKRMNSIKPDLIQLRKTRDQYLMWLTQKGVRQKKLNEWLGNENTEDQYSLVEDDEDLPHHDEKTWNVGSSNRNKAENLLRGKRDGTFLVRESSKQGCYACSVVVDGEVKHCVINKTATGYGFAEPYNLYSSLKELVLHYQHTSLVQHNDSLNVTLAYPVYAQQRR
UniProt P42336: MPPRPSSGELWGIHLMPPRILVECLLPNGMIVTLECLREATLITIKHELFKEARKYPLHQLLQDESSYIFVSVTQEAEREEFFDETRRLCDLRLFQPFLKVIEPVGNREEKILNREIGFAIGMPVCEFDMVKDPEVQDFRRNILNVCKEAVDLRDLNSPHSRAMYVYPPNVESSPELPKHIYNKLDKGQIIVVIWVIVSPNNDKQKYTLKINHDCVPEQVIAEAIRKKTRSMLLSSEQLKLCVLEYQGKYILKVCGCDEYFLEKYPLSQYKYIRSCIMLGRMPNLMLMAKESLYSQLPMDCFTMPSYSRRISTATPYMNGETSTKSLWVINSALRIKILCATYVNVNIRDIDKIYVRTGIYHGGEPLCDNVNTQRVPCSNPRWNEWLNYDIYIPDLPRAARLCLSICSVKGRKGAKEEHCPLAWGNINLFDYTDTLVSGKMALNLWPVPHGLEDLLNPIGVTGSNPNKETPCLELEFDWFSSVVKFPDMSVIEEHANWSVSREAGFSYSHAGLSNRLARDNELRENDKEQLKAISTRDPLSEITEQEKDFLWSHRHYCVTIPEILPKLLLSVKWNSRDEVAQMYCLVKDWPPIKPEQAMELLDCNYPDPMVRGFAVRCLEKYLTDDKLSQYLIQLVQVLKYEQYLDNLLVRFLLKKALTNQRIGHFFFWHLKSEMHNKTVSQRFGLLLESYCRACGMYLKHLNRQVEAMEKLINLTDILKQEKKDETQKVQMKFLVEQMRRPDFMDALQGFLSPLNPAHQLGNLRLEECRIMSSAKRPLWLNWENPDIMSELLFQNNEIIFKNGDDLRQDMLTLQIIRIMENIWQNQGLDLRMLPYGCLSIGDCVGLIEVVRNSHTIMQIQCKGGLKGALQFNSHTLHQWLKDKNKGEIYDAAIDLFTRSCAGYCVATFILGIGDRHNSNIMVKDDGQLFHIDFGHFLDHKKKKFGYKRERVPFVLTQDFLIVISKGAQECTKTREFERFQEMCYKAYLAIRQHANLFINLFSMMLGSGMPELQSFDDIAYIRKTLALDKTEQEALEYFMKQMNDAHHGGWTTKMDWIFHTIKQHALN
UniProt P15531: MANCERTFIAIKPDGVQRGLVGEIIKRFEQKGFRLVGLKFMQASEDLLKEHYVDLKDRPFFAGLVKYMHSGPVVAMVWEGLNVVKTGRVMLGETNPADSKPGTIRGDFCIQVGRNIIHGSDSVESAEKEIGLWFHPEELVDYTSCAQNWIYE

Tests used:
Myc-p85α = Myc-p85α (UniProt P27986); experiment: co-IP; lysates of transfected MDA-MB-435 cells; Co-IP with anti-Myc or anti-GFP antibody, mouse IgG as control; Western blot
Myc-p110α = Myc-p110α (UniProt P42336); experiment: as above
[1] = target: GST fusion protein of NM23-H1 (GST-NM23-H1) (UniProt P15531); experiment: pull-down; GST or GST-NM23-H1 fusion protein incubated with [35S]methionine-labeled in vitro translated p110α or p85α; bound proteins resolved on SDS-PAGE; only the target purified

Substance	binding (Myc-p85α)	binding (Myc-p110α)	binding [1]
GFP-NM23-H1 (from UniProt P15531 1-152)	no binding	binds	–
HA-S120G NM23-H1 mutant (from UniProt P15531 1-152)	–	no binding	–
in vitro-transcribed/translated 35S-labeled p85α (from UniProt P27986 1-724)	–	–	no binding

Results, then the substance that gave them:

binding (Myc-p85α)	binding (Myc-p110α)	binding [1]	Substance
–	no binding	–	HA-H118F NM23-H1 mutant (from UniProt P15531 1-152)
–	no binding	–	HA-P96S NM23-H1 mutant (from UniProt P15531 1-152)
